PubChem BioAssay AID504832 (National Center for Advancing Translational Sciences (NCATS), 2011)
The whole screen tested about 310,000 compounds, of which about 18,000 (5.8%) were called active. Inconclusive results, whose numbers are uncertain, are shown with a selection of clear calls. Calls follow the shape of the dose curve; as a rule, active = well fitted inhibition curve with a large enough effect; inconclusive = small, poorly fitted or top-dose-only effect, or another doubt; inactive = no such curve, though single readings can be large or run the other way. Potencies of inconclusive entries are left out as doubtful fits.

assay: Primary qHTS for delayed death inhibitors of the malarial parasite plastid, 48 hour incubation; conditions: P. falciparum luciferase growth in erythrocytes; series mostly up to 28.7 µM; activity change, negative = inhibition: at the top concentration
In short: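 Erythrocytes infected with P. falciparum carrying an integrated firefly luciferase reporter (2% hematocrit, 0.1% parasitemia final) were exposed to compounds in RPMI 1640 with 0.5% Albumax at 37 C, 5% CO2. Growth inhibition was scored as reduced luminescence.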
% is scaled to controls: 0 for no effect and ±100 for the full control effect; potency is read from the fitted curve at half-maximal effect; tags tell the direction and shape of the fitted curve.

Row | Structure (SMILES) | Potency | activity change, negative = inhibition
1 | CCOC(=O)C(CCc1ccccc1)NC1CCc2ccccc2N(CC(=O)O)C1=O (configuration not stated) | active: 9.53 µM | 
2 | COC(=O)[C@@]1(Cc2ccccc2)[C@H]2c3cc(C(=O)N4CCCC4)n(Cc4ccsc4Br)c3C[C@H]2CN1C(=O)c1ccccc1 | inconclusive [inhibitor, full curve] | 
3 | COc1ccc(CCNC(=O)COC(=O)c2cc(OC)c(OC)cc2OC)cc1 | inconclusive [inhibitor, partial curve, poor fit] | 
4 | COc1ccccc1CNC(=O)c1ccc(S(=O)(=O)N(C)c2ccccc2)cc1 | inconclusive [inhibitor, single point] | 
5 | CCC1=C(OC(=O)N(CC)CC)N2C(=O)OC(=NCCc3c[nH]c4ccccc34)[C@]2(Cc2ccccc2)[C@H]2C1=CC[C@H]1C(=O)NC(=O)[C@H]12 | inconclusive [inhibitor, full curve] | 
6 | CN(C)C(CNC(=O)c1cccc(S(=O)(=O)Nc2ccccc2Cl)c1)c1ccco1 (configuration not stated) | inconclusive [inhibitor, single point] | 
7 | COCC(C)n1c(SCC(=O)NNC(=O)c2ccc(F)cc2)nc2ccccc2c1=O (configuration not stated) |  | inactive: -15.6%
8 | COc1ccc(S(=O)(=O)N2CCC(C(N)=O)CC2)cc1C(=O)N1CCCCCC1 |  | inactive: -0.229%
9 | CC(C)c1cc(C(C)C)n2nc(N)nc2n1 | inconclusive [inhibitor, partial curve, poor fit] | 
10 | CCOC(=O)C1(Cc2ccc(OC)cc2)CCN(C(=O)CCc2cccnc2)CC1 | inconclusive [inhibitor, single point] | 
11 | CCn1c(SCC(=O)Nc2ccc(OC)cc2)nc2nc3c(cc2c1=O)COC(C)(C)C3 | inconclusive [inhibitor, partial curve] | 
12 | CN1C(C(=O)Nc2ccccn2)=C(O)c2sccc2S1(=O)=O | inconclusive [inhibitor, partial curve, poor fit] | 
13 | COc1ccc(Nc2nnc(-c3ccc(C(N)=O)cc3)c3ccccc23)cc1 | inconclusive [inhibitor, single point] | 
14 | CN(C)c1ccc(C(CC(=O)O)NC(=O)c2ccc(Cl)cc2)cc1 (configuration not stated) |  | inactive: 13.1%
15 | CCC1CCCCN1C(=O)CSc1nnc(-c2ccc(OC)cc2)o1 (configuration not stated) | inconclusive [inhibitor, single point] | 
16 | COc1nnc(-c2ccc(C)c(S(=O)(=O)NC(C)(C)CO)c2)c2ccccc12 | inconclusive [inhibitor, partial curve] | 
17 | Cc1ccccc1C(OCCN(C)C)C1CCCCC1 (configuration not stated) | inconclusive [inhibitor, single point] | 
18 | CCn1c(=O)c2cc(C(=O)N(C)c3ccc(OC)cc3OC)sc2c2ccccc21 | inconclusive [inhibitor, partial curve] | 
19 | CC(C)Oc1ccc(S(=O)(=O)N2CCOCC2)cc1NC(=O)c1ccc(N2CCCC2=O)cc1 | active: 4.15 µM | 
20 | Oc1c(C=Nc2ccccc2Cl)[nH]c2ccccc12 | inconclusive [inhibitor, single point] | 
21 | COCC(C)NC(=O)C1CCN(S(=O)(=O)c2ccc3ccccc3c2)CC1 (configuration not stated) | inconclusive [inhibitor, single point] | 
22 | Cc1nn(-c2ccccc2)c(N2CCCC2)c1/C=C1\N=C(c2ccc(OC(C)C)cc2)OC1=O |  | inactive: 17.8%
23 | COc1ccc(-c2[nH]ncc2N=Nc2cc(C)cc(C)c2)cc1 | inconclusive [inhibitor, single point] | 
24 | CCCC(CCC)C(=O)Nc1ccncc1 | inconclusive [inhibitor, partial curve] | 

Row | Structure (SMILES) | Potency | activity change, negative = inhibition
25 | Cc1nc(-c2ccc(S(=O)(=O)N3CCCN(CCc4ccccc4)CC3)s2)cs1 | inconclusive [inhibitor, partial curve, poor fit] | 
26 | COc1cc(OC)c(C(=O)Nc2ccccc2-c2ccccc2)cc1OC | inconclusive [inhibitor, single point] | 
27 | O=C(CNC(=O)c1ccc(Cl)cc1Cl)OCc1nnc(-c2ccccc2)o1 |  | inactive: -26.7%
28 | Cc1ccc2cc3cc(C(=O)NCCCN4CCCC4)oc3nc2c1 | inconclusive [inhibitor, partial curve] | 
29 | COc1ccc(CNC(=O)C(c2ccco2)N(Cc2cccs2)C(=O)Cc2cccs2)cc1 (configuration not stated) | inconclusive [inhibitor, single point] | 
30 | Cc1ccccc1NC(=O)c1ccc2c(c1)C(=O)N(CC(C)C)C2=O |  | inactive: -2.23%
31 | CCn1c(=N)n(CC(O)c2cccs2)c2ccccc21 (configuration not stated) | inconclusive [inhibitor, single point] | 
32 | Cc1cc(NCCN2CCCCC2)n2c(nc3ccccc32)c1C#N | inconclusive [inhibitor, single point] | 
33 | CNC(=S)/N=C(/Nc1ccccc1)c1ccccc1 | inconclusive [inhibitor, full curve, poor fit] | 
34 | Cc1ccc(N2C(N)=C(C#N)C(c3ccsc3)C3=C2CC(C)(C)CC3=O)cc1 (configuration not stated) | inconclusive [inhibitor, partial curve] | 
35 | CSc1ccc(NC(=O)N2CCN(c3nc4ccccc4s3)CC2)cc1 | inconclusive [inhibitor, partial curve] | 
36 | Cn1nnnc1Sc1ncnc2scc(-c3ccccc3Cl)c12 | active: 11.7 µM | 
37 | CN(C(=O)CC1C(=O)NCCN1Cc1ccoc1)C1CCOCC1 (configuration not stated) |  | inactive: 20.2%
38 | CCn1c(SCC(=O)N2CCc3ccccc32)nnc1-c1ccncc1 |  | inactive: 3.69%
39 | O=c1c2c(nc3nc(NCc4ccc(Cl)cc4)[nH]n13)CCC2 |  | inactive: -4.84%
40 | CC(=O)c1sc2nsc(SCCN3CCCCC3)c2c1N | inconclusive [inhibitor, partial curve, poor fit] | 
41 | CCCN1CCN(C(=O)c2ccccc2-c2nc3ccccc3s2)CC1 |  | inactive: -2.99%
42 | O=C(N/N=C/c1ccc(O)cc1O)/C(=C/c1ccccc1)CCO |  | inactive: 0%
43 | N/C(=N\OC(=O)COc1ccc2ccccc2c1Br)c1ccncc1 |  | inactive: 25.9%
44 | CC1(C)C(=O)OC(c2cc(Br)ccc2O)C(C)(C)C1=O (configuration not stated) | active: 11.7 µM | 
45 | CCCCOc1ccc(CCN)cc1Cl |  | inactive: 4.58%
46 | Nc1cc(=O)nc(SCC(=O)Nc2ccccc2)n1-c1ccccc1 |  | inactive: 1.39%
47 | CC(=O)Nc1ccc(S(=O)(=O)N2CCN=C2SCc2ccc(F)cc2)cc1 | inconclusive [inhibitor, partial curve] | 
48 | CCCCN(CC)CCNC(=O)c1cc2c(-c3ccccc3F)nn(C)c2s1 | active: 2.08 µM | 

Row | Structure (SMILES) | Potency | activity change, negative = inhibition
49 | CCC/C=N/NC(=O)c1ccc(F)cc1 | inconclusive [inhibitor, partial curve, poor fit] | 
50 | Fc1ccc(NC(=S)N2CCSC2c2cccs2)cc1 (configuration not stated) | inconclusive [inhibitor, partial curve] | 
51 | CCc1ccc2oc(=O)cc(CN3CCC(C)CC3)c2c1 | active: 1.31 µM | 
52 | COc1cccc(OCC(O)CN2CCN(c3ccccn3)CC2)c1 (configuration not stated) |  | inactive: -1.91%
53 | CN(C)c1ccc(-c2cc([C@H]3[C@@H]4C=CCC[C@@]4(C)C(=O)N3Cc3ccccc3)ccc2F)cc1 | inconclusive [inhibitor, single point] | 
54 | Cc1nn(-c2ccccc2)c(Cl)c1/C=C1\SC(=S)N(C)C1=O |  | inactive: 0.722%
55 | CNC(=O)C(=O)Nc1cc2c3c(c1)CCN3C(=O)CC2 |  | inactive: 16.4%
56 | N#Cc1cnc(SCC(=O)c2ccccc2)nc1N | active: 10.4 µM | 
57 | Cc1cccc(Cn2c(CN3CCN(Cc4ccccc4)CC3)nc3c2c(=O)[nH]c(=O)n3C)c1 | active: 6.57 µM | 
58 | O=C(CSc1nncn1-c1ccccc1F)NC1CCCCC1 |  | inactive: 50.3%
59 | Cn1cc(CN2CCCC(C(=O)Nc3cccc(-c4cc5ccccc5[nH]4)c3)C2)cn1 (configuration not stated) | inconclusive [inhibitor, single point] | 
60 | CC(=O)c1ccc(N2CCN(C(=O)c3cc(-c4ccncc4)nc4ccc(Cl)cc34)CC2)cc1 | inconclusive [inhibitor, single point] | 
61 | CCCCN1C(=O)NC(=O)/C(=C/c2cnc(SC)nc2)C1=O | inconclusive [inhibitor, partial curve, poor fit] | 
62 | Cc1ccc(-n2nc(C)c3c(C)c(CCC(=O)NCCCOC(C)C)c(C)nc32)cc1 | inconclusive [inhibitor, partial curve] | 
63 | Cc1ccc(NC(=O)c2cccs2)cc1NC(=O)c1ccc(F)cc1 |  | inactive: -7.15%
64 | COc1cccc(CN(C)CC(=O)Nc2cccc(C(F)(F)F)c2)c1OC | inconclusive [inhibitor, partial curve, poor fit] | 
65 | Cc1sc2ncnc(Sc3ccccc3C(=O)Nc3ccc(C#N)cc3)c2c1C | active: 10.4 µM | 
66 | CCOC(=O)N1CCN(Cc2nc3c(c(=O)[nH]c(=O)n3C)n2Cc2cc(C)ccc2C)CC1 | active: 13.1 µM | 
67 | CCC(C)c1ccc(NC(=O)NCCN2CCCCC2)cc1 (configuration not stated) |  | inactive: -21.3%
68 | Cc1cc(NC(=O)CN2C(=O)N(C)C3(CCCCC3)C2=O)ccc1Br | inconclusive [inhibitor, single point] | 
69 | Cc1ccc(S(=O)(=O)CCC(=O)Nc2cccc(S(=O)(=O)N3CCCCCC3)c2)cc1 | inconclusive [inhibitor, single point] | 
70 | CCc1nnc(SCC(=O)Nc2nc(C)c(C(=O)N(C)C)s2)n1CC |  | inactive: 18.1%
71 | COc1ccc(C2CC(c3cccs3)=NN2C(=O)CSC2=NN3CCCC(=O)N=C3S2)cc1 (configuration not stated) | active: 10.4 µM | 
72 | CC1Oc2ccccc2N(CC(=O)c2cccc(Cl)c2)C1=O (configuration not stated) |  | inactive: -2.29%
